Values quoted from earlier work, collected in US9539367B2, “Gallium inhibits biofilm formation” (priority 2003, dated 2017).

Molecular target: RR tyrosyl radical (Mus musculus, UniProt P11157)
Details: cell free extract of mammalian L1210 cells; Narasimhan et al., 1992; read-out: concentration required to decrease the EPR peak of the RR tyrosyl radical by 50%; cited from earlier work

RR tyrosyl radical, sequence (P11157 whole entry): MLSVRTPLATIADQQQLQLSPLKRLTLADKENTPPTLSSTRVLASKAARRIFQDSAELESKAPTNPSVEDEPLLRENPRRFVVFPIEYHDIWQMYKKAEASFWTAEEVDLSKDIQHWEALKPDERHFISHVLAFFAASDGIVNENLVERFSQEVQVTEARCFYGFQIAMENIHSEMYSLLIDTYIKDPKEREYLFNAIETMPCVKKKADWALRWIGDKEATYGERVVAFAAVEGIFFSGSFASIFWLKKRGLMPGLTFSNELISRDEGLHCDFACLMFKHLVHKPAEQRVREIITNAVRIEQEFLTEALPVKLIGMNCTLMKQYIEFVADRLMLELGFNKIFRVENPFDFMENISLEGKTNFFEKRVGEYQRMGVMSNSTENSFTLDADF

[Ga+3] [gallium]
IC50: 16 mM
